Data published in PubChem BioAssay AID445 (National Center for Advancing Translational Sciences (NCATS), 2006).
The campaign covered roughly 110,000 compounds. About 40 (0.04%) were called active. Inconclusive means that the source gave no clear call. Such entries were picked first, then a sample of the others. Calls come from the whole dose curve; as a rule, active = well fitted curve in the direction sought with a large enough effect in the signal ratio (not every such curve was filed as active); inconclusive = small, poorly fitted or top-dose-only effect, or a change in a side signal; inactive = flat fitted curve, though single readings scatter; the % refers to the signal ratio. Potencies of inconclusive entries are doubtful fits and often do not repeat.

assay: IkB Signaling; settings: ABC-DLBCL IkBa-CBG/CBR dual luciferase ratio (green luciferase fused to IkBa over red control in OCI-Ly3 lymphoma cells), 4 h; IkBa stabilization activation: at 57.1 µM (top of the series), scaled: untreated 0%, proteasome inhibitor 100% unless noted;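 for IkBa stabilization activation: 0% = basal untreated cells and 100% = reference inhibitor full response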
In short: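 Luminescence ratio of IκBα-fused green versus native red beetle luciferase in OCI-Ly3 cells, 4 h post-doxycycline with compound; red signal alone, scaled from basal (0%) to zero light (-100%), flagged nonspecific or cytotoxic effects.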
Potency is the fitted concentration of half-maximal effect.

| SMILES | IkBa stabilization activation | Potency |
| --- | --- | --- |
| CSc1ncnc2nc[nH]c12 | inactive: 1.48% | – |
| O=C(CSc1nc2c([nH]c3ccccc32)c(=O)n1-c1ccc(F)cc1)Nc1ccc2c(c1)OCCO2 | inconclusive: 0.782% [signal inhibitor] | – |
| CCCC(c1nnnn1C1CCCC1)N1CCN(c2ccccc2F)CC1 (stereo unspecified) | inactive: 1.52% | – |
| C[C@H](CN(C)C)C(O)(c1ccccc1)c1ccccc1 | inactive: 0.0604% [at 11.4 µM, scaled: untreated 0%, proteasome inhibitor 100%] | – |
| Cn1c(-c2ccc(C(C)(C)C)cc2)n[nH]c1=S | inactive: 0.145% | – |
| Cc1ccc(S(=O)(=O)N(CC(O)Cn2c3ccccc3c3ccccc32)c2cccc(C(=O)NCCO)c2)cc1 (stereo unspecified) | inconclusive: -0.589% [signal inhibitor] | – |
| O=c1[nH]c2[nH]c(=S)[nH]c(=S)c2[nH]1 | inactive: -0.755% [at 11.4 µM, scaled: untreated 0%, proteasome inhibitor 100%] | – |
| CCCCc1ccc(NC(=O)C2CCCO2)cc1 (stereo unspecified) | inconclusive: 6.93% [signal inhibitor] | – |
| COc1cc(OC)c(N(C)C(=O)c2cc3c(s2)-c2ccccc2OC3)cc1Cl | inconclusive: -0.0728% [signal inhibitor] | – |
| COc1ccc2c(CNCc3cccs3)c(C(=O)O)n(Cc3ccccc3C)c2c1 | inconclusive: -0.97% [signal inhibitor] | – |
| O=C(c1nnc(Cc2ccc(Cl)cc2)o1)N1CCc2ccccc2C1 | inconclusive: 4.82% [signal inhibitor] | – |
| CCC(=O)NCc1nc2ccccc2n1Cc1ccccc1 | inactive: 0.99% | – |
| CC(=O)C1=C(C)NC(SCC(=O)c2ccc(F)cc2)=C(C#N)C1c1ccco1 (stereo unspecified) | inconclusive: 6.56% [signal inhibitor] | – |
| Cc1ccc(Sc2ccc(N3CCC(C(=O)Nc4ccc(Cl)cc4)CC3)nn2)cc1 | inconclusive: 2.07% [signal inhibitor] | – |
| O=C(O)CNC(=O)c1ccccc1O | inactive: -0.166% [at 11.4 µM, scaled: untreated 0%, proteasome inhibitor 100%] | – |
| CCN1CCN(c2nc(-c3cccnc3)nc3ccccc23)CC1 | inactive: -1.56% | – |
| CN1CCN(c2ncc3nc(-c4cn(C)c5ccccc45)c(=O)n(CCC#N)c3n2)CC1 | – | inconclusive: 3.16 µM [signal inhibitor, partial curve] |
| O=C(Nc1nc2c(F)cccc2s1)c1ccc2c(c1)OCCO2 | inconclusive: 0.364% [signal inhibitor] | – |
| Cc1ccc(N2C(=O)C(CC(=O)Nc3ccc(F)cc3)N(Cc3ccc4c(c3)OCO4)C2=O)cc1 (stereo unspecified) | inconclusive: 6.52% [signal inhibitor] | – |
| Cc1ccc(CNC(=O)c2ccc3c(c2)NC(=O)C(CS(=O)(=O)Cc2cccc(F)c2)N3)cc1 (stereo unspecified) | inconclusive: 2.25% [signal inhibitor] | – |
| COC(=O)c1c(C(=O)OC)c2cc(C)ccn2c1Cl | inactive: -2.71% | – |
| Cn1cccc1Cc1nnc(SCC(=O)Nc2cccc(F)c2)n1CCc1ccccc1 | inconclusive: 6.96% [signal inhibitor] | – |

| SMILES | IkBa stabilization activation | Potency |
| --- | --- | --- |
| Cc1cc(C)cc(OCCCCCNCCO)c1 | inactive: -2.36% | – |
| CCOC(=O)Cn1c(=O)oc2cc(S(=O)(=O)Nc3cc(Cl)ccc3OC)ccc21 | – | inconclusive: 10 µM [signal inhibitor, partial curve] |
| CN(C)c1ncc2nc(-c3ccc(F)cc3)c(=O)n(CCC#N)c2n1 | inactive: 0.636% [at 11.4 µM, scaled: untreated 0%, proteasome inhibitor 100%] | – |
| CN1CCN(c2ccnc(-c3ccccc3C(F)(F)F)n2)CC1 | inactive: 0.938% [at 11.4 µM, scaled: untreated 0%, proteasome inhibitor 100%] | – |
| Cc1c(C(=O)O)oc2c1-c1nn(Cc3ccccc3Cl)cc1CC2 | inconclusive: 1.72% [signal inhibitor] | – |
| CCc1ccccc1NC(=O)c1ccc(F)c(S(=O)(=O)N2CCN(c3ccccc3OC)CC2)c1 | inconclusive: -2.57% [signal inhibitor] | – |
| Cc1oc2ncn(CC(C)C)c(=O)c2c1C(=O)Nc1ccc(Cl)cn1 | inconclusive: -0.247% [signal inhibitor] | – |
| O=C(NCc1ccccc1Cl)C1CCCN(c2nc3ccccc3n3cccc23)C1 (stereo unspecified) | inactive: -1.28% | – |
| O=C(C1CCCCC1)N(Cc1ccccc1)c1ccccn1 | inactive: -0.579% | – |
| Nc1nc(C(=O)O)c(N=Nc2ccccc2)c(=O)[nH]1 | inactive: 2.5% [at 11.4 µM, scaled: untreated 0%, proteasome inhibitor 100%] | – |
| COc1ccc(-n2c(-c3ccc(Cl)cc3)cc3c2CC(C)(C)CC3=O)c(OC)c1 | inconclusive: 1.31% [signal inhibitor] | – |
| CC1=C(C(=O)Nc2ccc(C)cc2C)C(c2ccc(C(C)C)cc2)n2nc(C(F)(F)F)nc2N1 (stereo unspecified) | inconclusive: 5.73% [signal inhibitor] | – |
| O=C1C2=C(Nc3ccccc3SC2c2c(F)cccc2Cl)c2ccccc21 (stereo unspecified) | inconclusive: 0.92% [signal inhibitor] | – |
| Cc1nc2cnc(N(C)C)nc2n(Cc2ccc(F)cc2)c1=O | inactive: -2.42% [at 11.4 µM, scaled: untreated 0%, proteasome inhibitor 100%] | – |
| CC(C)(C)OC(=O)N1CCC(c2c(C(=O)N3CCN(C4CCCCC4)CC3)cnn2-c2cccc(Cl)c2)CC1 | inconclusive: 2.6% [signal inhibitor] | – |
| O=C(COc1ccccc1)Nn1cnc2ccccc21 | – | inconclusive: 15.8 µM [signal inhibitor, partial curve] |
| CCCCNC(=O)c1sc2nc(C)cc(COC)c2c1-n1cccc1 | inconclusive: 1.94% [signal inhibitor] | – |
| CCOC(=O)N1CCC(NC(=O)c2cnn(-c3cccc(C)c3)c2-n2cccc2)CC1 | inconclusive: 0.92% [signal inhibitor] | – |
| Cc1ccc(C(=O)COC(=O)C(Cc2c[nH]c3ccccc23)NC(=O)c2ccc(Br)cc2)cc1 (stereo unspecified) | inconclusive: -1.05% [signal inhibitor] | – |
| O=C(NCCCO)C(=O)Nc1c2c(nn1-c1ccc(F)cc1)CSC2 | inconclusive: -1.34% [signal activator] | – |
| Cc1nnc(N2CCC(C(=O)NCc3ccc(N(C)C)cc3)CC2)c2nn(-c3ccccc3)c(C)c12 | inconclusive: 0.299% [signal inhibitor] | – |
| COC(=O)C1=C(C)N(c2cccc(Cl)c2)C(=O)C1 | inconclusive: 18.1% [signal inhibitor] | – |

| SMILES | IkBa stabilization activation | Potency |
| --- | --- | --- |
| COc1ccc(OC)c(CNC(=O)Cn2nc(C)c3c(C)n(-c4ccccc4)nc3c2=O)c1 | inconclusive: -0.497% [signal inhibitor] | – |
| O=C(Nc1ccc(Cl)cc1)c1ccc2c(c1)N(Cc1ccccc1)C(=O)c1ccccc1S2(=O)=O | inconclusive: 7.19% [signal inhibitor] | – |
| Cc1cccc(NC(=O)c2sc3cccc(Cl)c3c2Cl)c1 | – | inconclusive: 31.6 µM [signal inhibitor] |
| CCCCN(C)S(=O)(=O)c1ccc(C(=O)Nc2nnc(CSC)o2)cc1 | inactive: 1.5% | – |
| Cc1cccc(C)c1NC(=O)c1ccc2nc(CCc3ccccc3)oc2c1 | inactive: 1.77% | – |
| CNC(=O)c1c(NC(=O)c2cc(=O)c3ccccc3o2)sc2c1CCC2 | – | inconclusive: 5.01 µM [signal inhibitor] |
| CCOC(=O)c1nnn(-c2nonc2N)c1-c1cccc2ccccc12 | inconclusive: 3.24% [signal inhibitor] | – |
| CCCCNC(=O)CSc1c2c(nc3ccc(Cl)cc13)CCCC2 | – | inconclusive: 15.8 µM [signal inhibitor, partial curve] |
| COc1ccc(-c2nc3ccccc3s2)cc1NC(=O)c1ccccc1OC | inactive: 14.4% | – |
| COC(=O)C1=C(C)N(c2ccc(F)cc2)C(=O)C1 | – | inconclusive: 15.8 µM [signal inhibitor, partial curve] |
| Clc1ccc(-c2nnn(Cc3nc4ccccc4s3)n2)cc1 | inconclusive: 5.57% [signal inhibitor] | – |
| COc1cccc(-c2nc(S(=O)(=O)c3ccccc3)c(NCc3ccccc3)o2)c1 | inconclusive: 4.02% [signal inhibitor] | – |
| COc1cccc(-c2cc(C(F)(F)F)nc(NCc3ccc(F)cc3)n2)c1 | inconclusive: 4.13% [signal inhibitor] | – |
| COc1ccc(C(=O)/C=C/c2cn(CC(O)CN(CC(C)C)CC(C)C)c3ccccc23)cc1OC (stereo unspecified) | inconclusive: -0.937% [signal inhibitor] | – |
| O=C(Nc1nc2c(s1)CCc1ccccc1-2)c1cccs1 | – | inconclusive: 31.6 µM [rising, partial curve] |
| Cc1c(C(=O)Nc2ccc(F)cc2F)nnn1-c1ccccc1Br | inactive: 0.576% | – |
| COc1ccc(O)c(C(=O)CC(=O)c2ccc(F)cc2)c1 | – | inconclusive: 20 µM [signal inhibitor, partial curve] |
| CC1=C(C(=O)Nc2ccccc2)C(c2ccncc2)n2nc(SCc3ccccc3)nc2N1 (stereo unspecified) | inconclusive: -4.77% [signal inhibitor] | – |
| CC(C)c1ccc(NC(=O)CCS(=O)(=O)c2ccc(Br)s2)cc1 | inconclusive: 5.67% [signal inhibitor] | – |
| COc1ccc(N(CC(=O)Nc2ccc3c(c2)OCCO3)S(=O)(=O)c2c(C)noc2C)cc1 | inconclusive: 0.765% [signal inhibitor] | – |
| Cc1cccc2c1-c1sc(C(=O)NCc3ccccc3Cl)cc1CO2 | inconclusive: 3.83% [signal inhibitor] | – |
| COc1cccc(NC(=O)c2cc(CN3CCOCC3)on2)c1 | inconclusive: 1.28% [signal inhibitor] | – |
